Sequences with one replicate were seen in a single cluster, so their values are uncertain.
Test system: ATP
Assay: switch fluorescence ratio, 500 uM ATP over buffer (Cy3 cluster intensity, sum of 5 cycles each) (fold (ratio)); higher = stronger signal-on switching upon ATP binding; sequences stand for … in TCGTCGGCAGCGTCAGATGTGTATAAGAGACAGTTTTTTTTTTTTTTTTTTTTTTTTT…TC
Conditions: aptamer strand: ATP DNA aptamer (quencher-CACCTGGGGGAGTATTGCGGAGGAAGG + anchor), 100 nM annealed; ATP concentration: 500 uM; one replicate
How it was run: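 Between each of five buffer/ATP cycles, the flow-cell was stripped with NaOH and re-annealed. Each cycle imaged Cy3-labelled switching-strand clusters, annealed to 100 nM quencher-labelled ATP aptamer on a modified Illumina MiSeq flow-cell, first in selection buffer and then after 15 min with 500 uM ATP at 22 °C. The fluorescence ratio is summed target-cycle over summed buffer-cycle Cy3 intensity per cluster, averaged per switch-domain sequence, with clusters outside 100-1000 RFU excluded.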
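Note: ATP exposure 15 min at 22 °C before imaging.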

Sequence | switch fluorescence ratio
AGCAGTCGA | 1.18
TGCCTTACAA | 0.963
CCCAGACGGC | 1.02
TGTACATATT | 1.02
TTGGGCATAT | 1.01
GATAGGTAAA | 1.02
AATTCTTCCA | 1.05
GTTTAGGTAA | 0.97
GCCCTCGCAC | 1.31
TGCTCAAACG | 1.03
TTGTAACTAG | 1.01
TGTTCCTTGA | 0.995
TTATTGATAA | 0.99
GGCGTTAGGT | 0.996
CCTATCGTAC | 3.06
TAGCTGGTTT | 0.966
TCTTCTGTGG | 1.03
GGGCCTTTGG | 0.967
GTGGGGGT | 1.03
ATCGAATGGT | 0.97
TGTGAGTATC | 0.963
AGTCCAGTCA | 0.985
TATGAGCCCT | 1.01

Sequence | switch fluorescence ratio
CGGATTAAAG | 1.01
TTCGGCATAT | 4.66
AGGTTATATA | 1.02
CGTCGATTCA | 0.992
ACTTTCAAAC | 1.09
GATTGGTAAG | 0.982
GGTCCATTCT | 0.991
TTTGTGCTGA | 1.01
CACTGCCAAA | 1.06
ACCATGTTCT | 0.96
CTGATTCTGA | 0.991
CGGGGGACAA | 1.04
TCTTATTATA | 1.04
AACTAACTAT | 1.07
TGGGTAGGG | 0.97
AGTGTATCTA | 1.01
GAGGAAAGTC | 0.974
TAAGGTTAAT | 0.976
TTAGTCCAAA | 1.01
ACAAAAATCG | 1.08
CCCCACGTAT | 1.31
GAAATTGAAA | 1.08
ATTCGTAGA | 0.93

Sequence | switch fluorescence ratio
ATAAATGAGC | 1
TCGGAAAAGG | 0.962
GTTCTAGAAA | 0.986
ACCGGGCAAC | 1.15
CATAACCGTC | 1.21
TCTTGCCCTC | 1.02
CTTGTATAAC | 1.02
GATCGGAAAA | 1.03
GCAGTACGGA | 1.97
CTCGTCTGAC | 1.05
CTATTAAACG | 1.02
TATGGACGAA | 1
AGAAATCAT | 0.954
ATAGTGTGAT | 0.961
CAAAAGAAAT | 0.992
ATAGGGTAC | 1.02
GCAAAAAAT | 0.976
AATACGCCTT | 1.03
TACGGCCCGA | 0.99
AGATTAACAA | 1.01
GTGGGCTTGG | 0.969
CATCGTGGTG | 0.996
AATGCGCCTT | 1.02

Sequence | switch fluorescence ratio
GGGAGGTGA | 0.986
GGCTGAAGCG | 0.928
ACCGCGCTAT | 1.52
GATGATTCTT | 1.03
TGACACTGCG | 0.999
TTCCGCTTAG | 2.18
ACATATGTGC | 0.988
GATGATTTGA | 1
TTTAGTCTTC | 0.942
TGGATGCAAG | 1.01
GGGAATTGAA | 0.94
TTGTGGGCCC | 1.01
TAAGCACTTT | 1.1
TTGGTTTGT | 0.979
AAATATCACC | 1.09
GCGGAGAGTC | 0.993
CAAAAAAGC | 1.04
TACGGTTGCG | 0.99
TACATCCTAG | 0.987
CGGGATTTCA | 1
ATTGATATAC | 1.1
TGGTGACCCT | 0.995
GGCACATCAC | 1.27

Sequence | switch fluorescence ratio
ATGGCTTCGG | 0.975
ATGTTACAGA | 1.03
TTTCCCAATG | 1.05
GTGATGAAAA | 0.919
GTTTCGGATT | 0.996
TTTGCTAGTC | 1.03
TGCGGTCGT | 0.987
AAGTTCCTAT | 0.99
GATAAGGGC | 1.01
TTTACATCTT | 1.04
GTTCGAGGGT | 0.986
CCTTGGCGAC | 3.44
TGGGTCTGGG | 0.99
ACCGGCCGAG | 0.997
TTGGCATCC | 1.04
AGTCATGAGC | 0.992
CTCAGCCGTC | 1.03
GCTCTACAGC | 0.978
AGTGTAAATT | 0.993
GCCCAACGAG | 1.02
CTACTGCATA | 2
CATGTTACGT | 1.08
TTACTTTCTC | 1.08

Sequence | switch fluorescence ratio
GAGTTTCCGC | 1.02
AAAGTACATT | 1.15
GAAGGGAGTT | 0.983
CTGGTTAGTA | 0.972
ACATGTCATC | 1.01
GTGCACTT | 1.03
CTGGTGAGAA | 1.02
CAAGGTTGGT | 0.978
AAGGAGGTAC | 1
CACGTATACG | 1.01
GTTAAACGCA | 1.06
TTAGATTCCA | 1
CCCCTCATAT | 1.19
TACGCACCAT | 1.45
GGTTCGGTCT | 1
GGTCCAGCG | 0.993
CGTTGGACAC | 1.06
GATAGTA | 0.988
CGGCTATAAT | 1.07
TGAATTGGCT | 1.02
TAAACATTAT | 1.05
TATGGGACAC | 1.03
GCTCAGTTGT | 1.05

Sequence | switch fluorescence ratio
TTTGAGCCCG | 0.964
TTGTGATCAG | 1.01
TCGATCGCGC | 1.82
AACATCTTCA | 1.02
AGGCCAACAA | 0.997
ACATTGTGCA | 0.991
CAAACAATTT | 1
TACCTTGGGG | 1.01
ATTGGCCGTT | 1.02
CGTATATAAC | 1.11
CAGGTTAAGC | 0.961
ATACCTGGCG | 1.04
CTTATTACAG | 0.979
GGTAACCTAG | 1.01
AGTGAGTTTC | 1.01
TTGCCGTCGC | 0.891
GGCCATTAAA | 0.981
CGGATAGATG | 1.04
AGACGTCTTT | 0.999

— the supplement of paper PMC10126150
